Drawing on PubChem BioAssay AID1347073 (National Center for Advancing Translational Sciences (NCATS), 2019), this text covers growth rescue (activation) for 57 molecules.

The whole screen tested about 45,000 compounds, of which about 200 (0.44%) were called active. Another 7% or so got no clear call; they are omitted. The call rests on the fitted dose curve; in most records, active means well fitted activation curve with a large enough effect; inconclusive means small, poorly fitted or top-dose-only effect; inactive means no such curve, though single readings can be large or run the other way. Some of the results follow.

The nature of the assay: qHTS of TDP-43 Inhibitors: NCGC Sytravon Library Screen. Further: 0% is about no effect; nearly all actives have a fitted effect of over 55% in size. The note with it: yeast TDP-43 toxicity rescue, BacTiter-Glo growth, 24 h; at 46.1 µM (top of the series). Summed up: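 TDP-43-expressing yeast, pregrown in raffinose, seeded at OD600 0.02 in galactose medium with compound for 24 hr at 30 deg C. Growth read by BacTiter-Glo luminescence, so rescue of toxicity appears as activation.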
In general terms: Quantitative high-throughput screening tests each substance at several concentrations.
On to `O=c1c2ccccc2nc(/C=C\c2cccc(Br)c2)n1-c1ccc(O)cc1`, for which the growth rescue (activation) is inactive: 9.18%.

For `CCOC(=O)C1(CCc2ccccc2)CCN(C2CCSCC2)CC1`, the growth rescue (activation) was inactive: 7.77%.

For `CCN1CCN(C(=O)COc2ccc(S(=O)(=O)N3CCOCC3)cc2C)CC1`, the growth rescue (activation) was inactive: 6.82%.

Take `Cc1ccccc1-n1c(O)c(C(c2ccncc2)c2c(O)n(-c3ccccc3C)c(=O)[nH]c2=O)c(=O)[nH]c1=O`: the growth rescue (activation) is inactive: -0.803%.

As for `CCN1C(=O)C(=C/C=C/c2ccco2)C(=O)N(CC)C1=S`, the growth rescue (activation) was inactive: 5.59%.

Take `COc1cc2nc(CN3CC=C(c4ccccc4)CC3)[nH]c(=O)c2cc1OC`: the growth rescue (activation) is inactive: 24.3%.

`CN1CCN(c2cn[nH]c(=O)c2Cl)CC1`: the growth rescue (activation) was inactive: 6.26%.

In the case of `CCC(=NCC1CCCO1)c1c(O)n(-c2ccc(OC)cc2)c(=O)[nH]c1=O` (configuration not stated), the growth rescue (activation) was inactive: -24.1%.

`O=[N+]([O-])c1ccc(N2CCNCC2)cc1N1CCCCCC1`: the growth rescue (activation) is inactive: 4.35%.

With `COc1ccc(CC2(CCc3ccncc3)C(=O)NC(=O)NC2=O)c(OC)c1`, the growth rescue (activation) is inactive: -14.6%.

Turning to `[N-]=[N+]=NCc1cn2cccnc2n1`, the growth rescue (activation) is inactive: -11.8%.

For the molecule `CC12CC[C@H]3[C@@H](CCC4(O)C[C@H](O)CCC34/C=N/NC(=O)c3ccccc3O)C1(O)CCC2C1=CC(=O)OC1` (some centres not stated), the growth rescue (activation) is inactive: -1.49%.

Regarding `COc1c(C)cc(C(=O)C2CCCN(Cc3ccccn3)C2)cc1C` (configuration not stated), the growth rescue (activation) is inactive: 3.38%.

As to `CN1c2ccc([N+](=O)[O-])cc2CC2(C(=O)NC(=O)NC2=O)C1c1ccccc1` (configuration not stated), the growth rescue (activation) is inactive: -26.4%.

Regarding `COC(=O)CN1C(=O)CN=C(c2ccccc2Cl)c2cc(Br)ccc21`, the growth rescue (activation) was inactive: 26.8%.

With `CCCc1nnc(NC(=O)CCC(=O)N2CCN(CCOC(c3ccccc3)c3ccccc3)CC2)s1`, the growth rescue (activation) was inactive: -3.38%.

`C[C@]12CCC3C(C[C@@H](O)[C@H]4C[C@@H](O)CC[C@]34C)C1CC[C@@H]2O` (some centres not stated): the growth rescue (activation) was inactive: 5.24%.

Regarding `O=C(c1cc(F)ccc1F)C1CCCN(Cc2cccc(Cl)c2)C1` (configuration not stated), the growth rescue (activation) was inactive: 0.629%.

Take `CCOC(=O)c1c(/N=C/C2C(=O)NC(=O)NC2=O)sc2c1CCC2`: the growth rescue (activation) was inactive: 2.25%.

`COc1cc(C(=O)Nc2ccc(Br)cc2C(=O)c2ccccc2)cc(OC)c1OC`: the growth rescue (activation) was inactive: 5.61%.

On to `CCOc1ccccc1OCC(=O)Nc1ccc(Cl)cc1C(=O)c1ccccc1`, for which the growth rescue (activation) was inactive: -16.4%.

For `O=C(O)CCC(=O)NCCC1=c2ccccc2=N/C1=C\c1c(O)n(Cc2ccc(F)cc2)c(=S)[nH]c1=O`, the growth rescue (activation) is inactive: -6.61%.

Take `COc1ccccc1N1C(=O)NC(=O)/C(=C/c2ccc3c(c2)Cc2ccccc2-3)C1=O`: the growth rescue (activation) is inactive: -22.1%.

Regarding `O=c1c2ccccc2nc(/C=C/c2ccc([N+](=O)[O-])o2)n1-c1ccc(O)cc1`, the growth rescue (activation) was inactive: -4.39%.

Turning to `Cc1ccc(S(=O)(=O)Nc2cc(C(=O)N3CCC4(CC3)OCCO4)ccc2N2CCCCC2)cc1`, the growth rescue (activation) was inactive: -13.6%.

For `COc1ccc2c(c1OC)CN1CCc3cc4c(cc3C1C2)OCO4` (configuration not stated), the growth rescue (activation) is inactive: -16.4%.

As to `Cc1ccc2c(c1)CNc1ccccc1O2`, the growth rescue (activation) is inactive: 17.6%.

Regarding `O=C(c1ccc2c(c1)OCO2)C1CCCN(Cc2ccccn2)C1` (configuration not stated), the growth rescue (activation) was inactive: 1.25%.

Turning to `COc1ccc(-c2cc(-c3ccccc3)[n+](C)c(-c3ccccc3)c2)cc1`, the growth rescue (activation) is inactive: -17.4%.

On to `CCOC(=O)C1(Cc2ccc(Cl)cc2)CCN(C(C)CCn2cccn2)CC1` (configuration not stated), for which the growth rescue (activation) was inactive: 6.39%.

As to `Cc1ccc(N2C(=O)NC(=O)/C(=C\c3cc(C)n(-c4sc5c(c4C#N)CCCC5)c3C)C2=O)cc1`, the growth rescue (activation) was inactive: 11.1%.

In the case of `Cn1c(O)c(C=Nc2ccccc2-c2ccccc2)c(=O)n(C)c1=O`, the growth rescue (activation) is inactive: -0.786%.

For the molecule `COc1cccc(-n2c(=S)[nH]c3ccccc3c2=O)c1`, the growth rescue (activation) was inactive: -16.4%.

With `COC(=O)C(O)(c1ccc(N(C)C)cc1)C(F)(F)F` (configuration not stated), the growth rescue (activation) was inactive: 0.948%.

For the molecule `Cc1ccc(OP(=O)(O)Oc2ccc(C)cc2)cc1`, the growth rescue (activation) is inactive: 13.4%.

Consider `Cn1cccc1/C=C1/C(=O)NC(=O)N(Cc2ccc(F)cc2)C1=O`, for which the growth rescue (activation) is inactive: -9.83%.

In the case of `CC12CCC(=O)C=C1CCC1C2CCC2(C)C1CCC2(O)CC#N` (configuration not stated), the growth rescue (activation) was inactive: -6.75%.

`N/C(=N\[N+](=O)[O-])N1CCN(C(=O)c2ccccc2)CC1`: the growth rescue (activation) is inactive: -8.5%.

As to `Cn1c(O)c(C=Nc2ccccc2Sc2ccccc2)c(=O)n(C)c1=O`, the growth rescue (activation) is inactive: 7.47%.

For the molecule `Cc1c(C(=O)N2CCC3(CC2)OCCO3)sc2ncnc(N3CCc4ccccc4C3)c12`, the growth rescue (activation) is inactive: 23%.

For `O=C(CN1CCOCC1)c1ccc(Br)cc1`, the growth rescue (activation) is inactive: -6.28%.

Regarding `CCCCCn1c(NC(=O)c2ccco2)c(C(=O)OCC)c2nc3ccccc3nc21`, the growth rescue (activation) is inactive: 6.77%.

As for `COc1ccccc1CCNC1CCC(C)CC1` (configuration not stated), the growth rescue (activation) is inactive: 1.47%.

In the case of `Cc1ccc(Cn2cc(C=O)c3ccccc32)cc1`, the growth rescue (activation) was inactive: 22.8%.

As for `CC(=O)N1CN2CN(C(C)=O)CC(C(=O)c3ccc([N+](=O)[O-])cc3)(C2)C1`, the growth rescue (activation) was inactive: 10.9%.

Turning to `CC(=O)Nc1ccc(C2CN(C)CC2C(=O)c2ccc(Cl)cc2)cc1` (configuration not stated), the growth rescue (activation) was inactive: 17.4%.

On to `COC(=O)c1ccc(NC(=O)CSc2nc3ccc(N4C(=O)C5C6C=CC(C6)C5C4=O)cc3s2)cc1` (configuration not stated), for which the growth rescue (activation) was inactive: 0.367%.

For the molecule `CC(NCc1ccccc1C(F)(F)F)C(O)c1ccccc1` (configuration not stated), the growth rescue (activation) is inactive: 2.11%.

With `Cc1ccc2c(c1)C1CN(C)CCC1N2C(=O)Cn1cnc2c1c(=O)n(C)c(=O)n2C` (configuration not stated), the growth rescue (activation) is inactive: 3.99%.

Regarding `CC(C)[C@H]1CC2C3CC=C4C[C@@H](O)CC[C@]4(C)C3CC[C@]2(C)[C@H]1O` (some centres not stated), the growth rescue (activation) was inactive: 2.18%.

Turning to `Cc1ccc(CNC(=O)CCCn2c(=O)c3sccc3n(CC(=O)Nc3c(C)cccc3C)c2=O)cc1`, the growth rescue (activation) was inactive: 4.24%.

`CCOP(=O)(OCC)C(O)c1ccc(OC)cc1` (configuration not stated): the growth rescue (activation) was inactive: 5.22%.

As to `CCOC(=O)c1c(C)n(Cc2ccccc2)c2ccc(OCC(O)CNC(C)(C)C)cc12` (configuration not stated), the growth rescue (activation) was inactive: 10.3%.

Consider `C=CCn1c(O)c(C(C)=Nc2ccc(C(=O)O)cc2)c(=O)[nH]c1=O`, for which the growth rescue (activation) was inactive: -4.97%.

Turning to `O=c1[nH]c(=O)n(CC2CCCO2)c(O)c1/C=C1\C=Nc2ccccc21` (configuration not stated), the growth rescue (activation) is inactive: 8.26%.

With `CNCC(C)c1ccccc1` (configuration not stated), the growth rescue (activation) was inactive: -0.693%.

Turning to `C=CCn1cc(C=C2C(=O)NC(=O)NC2=O)c2ccccc21`, the growth rescue (activation) is inactive: -0.179%.
